# Laboratory results taken from PubChem BioAssay AID1347073 (National Center for Advancing Translational Sciences (NCATS), 2019).
# Out of some 45,000 compounds screened, about 200 (0.44%) were called active. About 7% were inconclusive and are not listed. The call rests on the fitted dose curve; in most records, active means well fitted activation curve with a large enough effect; inconclusive means small, poorly fitted or top-dose-only effect; inactive means no such curve, though single readings can be large or run the other way. This is one part of the list.
# Assay: qHTS of TDP-43 Inhibitors: NCGC Sytravon Library Screen; further: 0% is about no effect; nearly all actives have a fitted effect of over 55% in size
# Settings: yeast TDP-43 toxicity rescue, BacTiter-Glo growth, 24 h; series mostly up to 46.1 µM; growth rescue (activation): at the top concentration
# How it was run: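 TDP-43-expressing yeast, pregrown in raffinose, seeded at OD600 0.02 in galactose medium with compound for 24 hr at 30 deg C. Growth read by BacTiter-Glo luminescence, so rescue of toxicity appears as activation.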
row,Compound,growth rescue (activation)
1,COc1ccc(-c2ccc(C(=O)NCC3CCOCC3)c3occc23)c(C)c1,inactive: 14.9%
2,CCN(CC)C(=O)C(C(=O)c1cccc([N+](=O)[O-])c1)n1cc(Cl)ccc1=O (stereo not given),inactive: -6.83%
3,CC(=O)Nc1ccc(NC(=O)c2ccc(NS(=O)(=O)c3cccc4cccnc34)cc2)cc1,inactive: 10.1%
4,COc1ccc(C(=O)n2cc(C(=O)c3cc(C)ccc3O)cn2)cc1,inactive: 1.09%
5,Cc1ccc(N2CC(C(=O)Nc3ccc(S(=O)(=O)NCC4CCCO4)cc3)CC2=O)cc1C (stereo not given),inactive: 23.6%
6,O=C(O)C1CSC(CCc2ccccc2)N1 (stereo not given),inactive: 24.7%
7,CC1CCCCN1Cc1c(C#N)c2ccccc2n1C (stereo not given),inactive: 0.149%
8,CC1(C(=O)NS(=O)(=O)c2cccc(Cl)c2)CCN1C(=O)Cc1cc(F)ccc1F (stereo not given),inactive: 5.04%
9,COc1cccc(NC(=O)C2(C)CCN2C(=O)C2CCCCC2)c1 (stereo not given),inactive: 30%
10,COc1cc(/C=C/c2cc(C(F)(F)F)[nH]c(=O)n2)cc(OC)c1OC,inactive: -20.9%
11,CCOc1ccc(NC(=O)Nc2nnc(CC(=O)NCc3ccccc3)s2)cc1,inactive: -2.51%
12,Cn1nnnc1SCCCNCc1cccc(OCc2ccc(Cl)cc2)c1,inactive: 30%
13,CCNC(=O)C1CCCN(C(=O)c2ccc(OC(F)F)cc2)CC1 (stereo not given),inactive: -3.53%
14,O=C(CN(Cc1ccccc1)C(=O)CNS(=O)(=O)c1ccccc1)NCC1CCCO1 (stereo not given),inactive: 14.9%
15,CCC(c1nnnn1Cc1ccc(F)cc1)N1CCN(C)CC1 (stereo not given),inactive: 1.4%
16,CCN(CC)CCNC(=O)c1cc(Sc2nnc(C)s2)nc2ccccc12,inactive: 11.3%
17,Cc1cc(=O)[nH]c(SCc2cn3ccccc3n2)n1,inactive: -14.9%
18,COc1ccc(-c2cn(-c3ccccc3)c3[n+]2CCS3)cc1,inactive: -0.941%
19,CC1(C(=O)NS(=O)(=O)Cc2cccc(Cl)c2)CCN1C(=O)C1CCCCC1 (stereo not given),inactive: -7.94%
20,COc1ccccc1OCCn1cc(C(=O)c2cccs2)c2ccccc21,inactive: 17.8%
21,CC(NC(=O)Cn1cnnn1)c1cccc(C(F)(F)F)c1 (stereo not given),inactive: 9.73%
22,Cc1ccc(NC(=O)CN(C)C(=O)Cc2ccc(Cl)cc2Cl)cc1,inactive: 13%

row,Compound,growth rescue (activation)
1,COc1ccccc1NS(=O)(=O)c1cc(N)ccc1N1CCOCC1,inactive: 3.23%
2,OCC1(Cc2ccccc2C(F)(F)F)CCN(Cc2ccccc2)CC1,inactive: 9.28%
3,CCNc1nc(C23CC4CC(CC(C4)C2)C3)cs1,inactive: 1.98%
4,Nc1nc(NC(=O)CCC(=O)O)nn1-c1ccccc1,inactive: -7.26%
5,COc1ccc(CCCC(=O)Nc2ccc(F)cc2)cc1,inactive: 33%
6,COc1ccccc1-n1cnnc1SCC(=O)Nc1cc(C)on1,inactive: -10%
7,CC(=O)c1ccccc1NS(C)(=O)=O,inactive: -2.51%
8,CC1(C(=O)NS(=O)(=O)c2ccccc2)CCN1C(=O)C1CCCCC1 (stereo not given),inactive: 2.63%
9,CCOc1ccc(C(C(=O)NC2CCCCC2)N(C(=O)Cc2cccs2)c2ccc(-n3cnnn3)c(OC)c2)cc1 (stereo not given),inactive: 15.9%
10,CCOC(=O)c1cn2ccc(C)cc2n1,inactive: -7.79%
11,COC(=O)C1=C(C(=O)c2ccc(C)cc2)C(c2ccccc2)n2nnnc2N1 (stereo not given),inactive: -11.5%
12,CCOC(=O)c1sc(NC(=O)C(C)Sc2nnc(N)s2)nc1C (stereo not given),inactive: 9.72%
13,COc1ccc(Cl)cc1C(=O)NNC(=O)COC(=O)c1ccc(Br)o1,inactive: 2.62%
14,COc1cccc(C(=O)NNC(=O)Cc2ccc([N+](=O)[O-])cc2)c1,inactive: -1.86%
15,COc1ccccc1/C=C1/C(=O)N(c2ccccc2)N=C1C,inactive: -13.3%
16,Cc1cc(C)n2nc(C(=O)OCC(=O)c3ccccc3)nc2n1,inactive: -70%
17,CC(=O)Nc1ccc(-n2nnnc2SCC(=O)NC2CCCC2)cc1,inactive: 0.74%
18,COc1ccc(C(=O)N(CC2CCCO2)C(C(=O)NCCC(C)C)c2ccc(C)cc2)cc1OC (stereo not given),inactive: 9.81%
19,CC(=O)Nc1ccc(NC(=O)C(Sc2ccccc2)c2ccccc2)cc1 (stereo not given),inactive: -2.58%
20,O=C(CSc1nnc(-c2cccc(S(=O)(=O)N3CCCC3)c2)n1-c1ccccc1)Nc1ccc(C(=O)O)cc1,inactive: 2.5%
21,O=C(COC(=O)/C=C/c1ccc(Cl)cc1)NCCN1C(=O)CSC1=O,inactive: 4.55%
22,CCOc1cc(/C=C2\SC(=Nc3ccc(CC)cc3)NC2=O)ccc1OCC(=O)O,inactive: 14.4%

row,Compound,growth rescue (activation)
1,CCN(C(=O)CSc1nnc(Nc2ccccc2C)s1)C1CCS(=O)(=O)C1 (stereo not given),inactive: -3%
2,CC1CCCC(C)N1/N=C/c1ccccc1F (stereo not given),inactive: -24.7%
3,O=C(O)c1sc2cc(C(F)(F)F)cnc2c1-c1ccccn1,inactive: -10.3%
4,CCOCCCNc1ccc(N2C(=O)CCCC2=O)cc1[N+](=O)[O-],inactive: -18.1%
5,CCSc1nnc(NC(NC(C)=O)(C(F)(F)F)C(F)(F)F)s1,inactive: -0.948%
6,CCN(C(=O)c1cccc(S(=O)(=O)N(C)C)c1)C12CC3CC(CC(C3)C1)C2,inactive: -15.6%
7,O=[N+]([O-])c1cccc(/C=N/NC2CCS(=O)(=O)C2)c1 (stereo not given),inactive: 1.55%
8,Cc1ccc(NC(=O)c2cccc(C(=O)Nc3ccc(C)cc3C(=O)O)c2)c(C(=O)O)c1,inactive: -1.05%
9,O=C(O)/C=C/C(=O)NCCNc1ncc(C(F)(F)F)cc1Cl,inactive: -19%
10,C=CCc1cccc2cc(C(=O)N3CCN(c4ccccn4)CC3)c(=O)oc12,inactive: 6.94%
11,COc1ccc(C(=O)COC(=O)CNC(=O)c2cccc(OC(F)F)c2)cc1,inactive: 21.5%
12,CCC(CC)NC(=O)CC(c1ccccc1)c1ccccc1,inactive: -22.5%
13,CCn1c(SCC(=O)NCc2ccc3c(c2)OCO3)nnc1-c1ccco1,inactive: -6.31%
14,O=C(N/N=C/c1ccc(-c2ccccc2)o1)c1ccccc1O,inactive: 6.14%
15,O=C(O)C(Cc1c[nH]c2ccccc12)NS(=O)(=O)c1ccccc1 (stereo not given),inactive: 9.01%
16,COc1ccc(OC)c2c1cc(C(=O)N[C@@H](Cc1ccccc1)C(=O)O)n2C,inactive: -1.49%
17,Cc1cc(S(=O)(=O)Nc2ccc3c(c2)n(C)c(=O)n3C)ccc1F,inactive: -7.17%
18,COCCNC(=O)c1c(N)n(-c2cccc(C)c2)c2nc3ccccc3nc12,inactive: 39.3%
19,O=C(CSc1nc(O)c(C(c2ccccc2)c2ccccc2)c(=O)[nH]1)N1CCOCC1,inactive: -3.39%
20,CC1(C)OC(=O)C(=C2CCCN2)C(=O)O1,inactive: -8.71%
21,O=C(O)CNC(=O)C(c1ccccc1)c1ccccc1,inactive: -10.1%
22,O=C(NCc1ccco1)c1cc(Cl)nc(Cl)c1,inactive: 15.4%

row,Compound,growth rescue (activation)
1,COc1ccccc1N1CCN(C(=O)C2CC=CCC2C(=O)O)CC1 (stereo not given),inactive: -10.8%
2,O=C(CC1C(=O)NCCN1Cc1ccc(F)c(F)c1)NCCCn1ccnc1 (stereo not given),inactive: 2.38%
3,COc1ccc(/C=C2/C(=O)N(c3ccccc3)N=C2C)cc1OC,inactive: -2.3%
4,CC(C)CC(=O)NC1(C(F)(F)F)C(=O)N(CC(C)C)C2=C1C(=O)CC(C)(C)C2 (stereo not given),inactive: 26.4%
5,O=C(O)CCc1ccc(-c2cccs2)n1CCc1ccccc1,inactive: 6.13%
6,O=C(c1cc(Br)ccc1Cl)N1CCN(c2ncccn2)CC1,inactive: 19.5%
7,O=C1c2ccccc2NC(c2ccccc2)N1Cc1ccco1 (stereo not given),inactive: -5.64%
8,COc1ccc(/C=N/OC(=O)Nc2ccc(Cl)cc2)c(OC)c1,inactive: 20.1%
9,O=C(c1ccco1)N1CCN(C(=O)c2ccccc2OCc2ccccc2)CC1,inactive: 9.23%
10,COc1cc(OC)cc(N(C(=O)C2COc3ccccc3O2)C(C(=O)NC2CCCCC2)c2ccc(O)cc2)c1 (stereo not given),inactive: -6.46%
11,COC(=O)COc1ccc(-n2cnnn2)cc1,inactive: -6.11%
12,Cc1ccccc1NN1C(=O)C=CC1=O,inactive: -41%
13,CN(C)Cc1c(-c2ccc(Cl)cc2)nc2ccccn12,inactive: -4.15%
14,C=CCNC(=O)NC(=O)Cn1c(=O)c2c(ncn2CC)n(Cc2ccccc2)c1=O,inactive: -9.26%
15,CC(NC(=O)CSc1ncn[nH]1)c1ccc(Cl)cc1Cl (stereo not given),inactive: -17.5%
16,Cc1ccc(-c2noc(C3CCCN(C(=O)c4ccccc4Br)C3)n2)o1 (stereo not given),inactive: 26.2%
17,Cc1cccc(C)c1NC(=O)Cn1c(=O)c(N2CCCCC2)c(N)n(C)c1=O,inactive: -1.3%
18,Cc1sc2nc(SCC(=O)O)[nH]c(=O)c2c1C,inactive: -1.13%
19,CC(=O)N/C(=C/c1ccc2c(c1)OCO2)C(=O)Nc1ccccc1,inactive: 10.3%
20,O=C(Nc1ccc(F)cc1F)NC1CC(=O)N(Cc2ccccc2)C1 (stereo not given),inactive: -11%
21,CON(c1nc(Cl)nc(N(C)C)n1)S(=O)(=O)c1ccccc1Cl,inactive: 10.1%
22,O=C1/C(=C/c2cccs2)N=C(c2cccs2)N1Nc1ccccc1,inactive: -33.2%

row,Compound,growth rescue (activation)
1,CCOC(=O)c1cc(-c2ccc(OC(F)F)cc2)nc2nc(SC)[nH]c(=O)c12,inactive: 12.3%
2,Cc1nc2ccccc2n1C1CCN(CC(=O)Nc2ccccc2Br)CC1,inactive: 3.55%
3,Cc1cccc(OCC(=O)NCCCNC(=O)c2cnccn2)c1,inactive: -29.6%
4,COCCn1c(SCC(=O)Nc2ccc3[nH]c(=O)[nH]c3c2)nc2ccccc2c1=O,inactive: 23.2%
5,Cc1ccc(CN2CCN(Cc3nc4c(s3)CCCC4)CC2CCO)cc1 (stereo not given),inactive: -0.164%
6,Cc1cc(NC(=O)CSc2nc3c(C)cccc3cc2C)no1,inactive: 5.55%
7,CC1(C(=O)NS(=O)(=O)c2cccs2)CCN1C(=O)C1CCCCC1 (stereo not given),inactive: -12.7%
8,CC(C)CNC(=O)c1cccc(NC(=O)COc2cccc([N+](=O)[O-])c2)c1,inactive: 6.28%
9,COc1ccc(C(=O)C2CCN(C(=S)NCCc3ccc(OC)c(OC)c3)CC2)cc1,inactive: 5.78%
10,CC1Cc2ccccc2N1Cc1cccc([N+](=O)[O-])c1 (stereo not given),inactive: 27.1%
11,Cc1ccc(CN(C(=O)c2csnn2)C(C(=O)NC2CCCC2)c2cccnc2)cc1 (stereo not given),inactive: 11.2%
12,Cc1ccc(NC(=O)COC(=O)c2ccc(C)c(S(=O)(=O)N3CCOCC3)c2)cc1,inactive: 26%
13,O=C1CN(S(=O)(=O)c2ccc([N+](=O)[O-])cc2)CC(=O)N1,inactive: 5.69%
14,NS(=O)(=O)c1cccc(NC(=S)NCc2ccccc2)c1,inactive: 8.98%
15,CNc1cncc(-c2cnn(CC(C)C)c2)n1,inactive: 20.5%
16,Cc1ccc(CN(Cc2ccco2)S(=O)(=O)c2ccc(S(=O)(=O)NCC3CCCO3)cc2)cc1 (stereo not given),inactive: 26.5%
17,COc1ccc(C2=CSC3=NCCN23)cc1,inactive: 9.36%
18,O=C(O)CCCC(=O)Nc1nc(-c2ccc(F)cc2)cs1,inactive: -2.92%
19,Nc1ccc(S(=O)(=O)NC2=NCCCCC2)cc1,inactive: 24.9%
20,C[N+]1(C2CCC3CCCC2C3O)CCCCC1 (stereo not given),inactive: 7.1%
21,N/C(=N/O)C(c1ccccc1)c1ccccc1,inactive: 17.5%
22,Cc1cccc2[nH]c(CN(C)C(=O)C3CCC(=O)N(CCc4ccccc4)C3)nc12 (stereo not given),inactive: -20.9%
